Data: patent CN117412992A (NOVIMMUNE SA, dated 2024)

Biological target: T1, human CD47 on cells (Raji, Nalm-6, HT-1080 tumour cells; human red blood cells) (human, UniProt Q08722)
T1 construct: whole, on cells
Assay: flow cytometry on human red blood cells (CD47+, PD-L1-)

binding result: binds
B1: K2xS100 CD47xPD-L1 bispecific antibody (bispecific antibody, human IgG1, kappa, lambda)
heavy: [letters of about 120 residues left out][letters of about 100 residues left out][letters of human IgG1 Fc left out]
light 1: DIQMTQSPSSLSASVGDRVTITCRASQSISSYLNWYQQKPGKAPKLLIYAASSLQSGVPSRFSGSGSGTDFTLTISSLQPEDFATYYCQQMHPRAPKTFGQGTKVEIKRTVAAPSVFIFPPSDEQLKSGTASVVCLLNNFYPREAKVQWKVDNALQSGNSQESVTEQDSKDSTYSLSSTLTLSKADYEKHKVYACEVTHQGLSSPVTKSFNRGEC
light 2: QSVLTQPPSASGTPGQRVTISCSGSSSNIENKPVNWYQQLPGTAPKLLIYHDTTRPSGVPDRFSGSKSGTSASLAISGLQSEDEADYYCAAWDFATWPATEVFGGGTKLTVLGQPKAAPSVTLFPPSSEELQANKATLVCLISDFYPGAVTVAWKADSSPVKAGVETTTPSKQSNNKYAASSYLSLTPEQWKSHRSYSCQVTHEGSTVEKTVAPTECS
notes: kappa-lambda body with a common heavy chain; also called K2xS100 bsAb; bsAb K2xS100
